Reference: PubChem BioAssay AID759 (NMMLSC, 2007)
About 270 (0.14%) of roughly 190,000 compounds were called active. The shares of active, inactive and inconclusive entries below differ from those in the screen.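 How the source made its calls: active means GTP binding activity at least 20% away from the 100% baseline, either lowered as inhibitor or raised as activator; inconclusive means flagged as likely green fluorescent, judged across all proteins in the well; inactive means the rest.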

target: GTPase HRas (Homo sapiens) (UniProt P01112); assay: HRas wt fluorescent GTP binding changes, either direction – biochemical, wildtype, bead-based flow cytometry, multiplex, primary screen (AID 759); settings: GST-Ras wt beads, Bodipy-FL-GTP binding, at 10 µM, actives lie on both sides;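 further: 0% = unlabeled GTP competition control and 100% = no-compound control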
Chain of UniProt P01112 (P01112 whole entry, looked up): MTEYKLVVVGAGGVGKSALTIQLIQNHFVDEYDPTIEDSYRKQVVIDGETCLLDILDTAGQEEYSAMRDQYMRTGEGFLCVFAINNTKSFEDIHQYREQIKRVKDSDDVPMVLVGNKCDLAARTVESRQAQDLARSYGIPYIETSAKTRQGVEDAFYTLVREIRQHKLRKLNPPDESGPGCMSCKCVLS

| SMILES | GTP binding activity |
| --- | --- |
| O=c1c2ccc([N+](=O)[O-])cc2ncn1Cc1ccccc1C(F)(F)F | inconclusive: 69% |
| COc1cnn(-c2ccc(Br)cc2)c(=O)c1SCc1ccccc1 | inconclusive: 105% |
| COc1ccc(C)cc1-n1nnnc1SCc1cc(=O)n2cc(C)ccc2n1 | inconclusive: 103% |
| CCOC(=O)CNS(=O)(=O)c1ccc(C(=O)O)cc1 | inconclusive: 103% |
| CCN(CC(=O)Nc1ccc(Cl)c(S(=O)(=O)N(C)C)c1)CC(=O)NC(C)C | inconclusive: 95% |
| COc1ccc(NC(=O)Cn2cnc3sc(C)c(S(=O)(=O)N4CCOCC4)c3c2=O)c(OC)c1 | inactive: 91% |
| CCOC(=O)c1nn(-c2ccc(C)cc2)c(=O)c2c(N)scc12 | inconclusive: 97% |
| COC(=O)c1cc(NCc2c(F)cccc2Cl)ccc1N1CCOCC1 | inconclusive: 105% |
| CC(=O)Nc1ccc(N2CCCCC2)cc1 | inconclusive: 103% |
| COCCCNCCOCCOc1ccc(Cl)cc1C(C)(C)C | inactive: 104% |
| O=C(CSc1cnc2ccccc2n1)NC1CCCC1 | inconclusive: 106% |
| COc1cccc(/C=N/Nc2nc3ccccc3n3cnnc23)c1 | inconclusive: 84% |
| COc1ccc2c3c(cccc13)C(=O)N(O)C2=O | inactive: 84% |
| COc1ccccc1N(C(C)=O)c1nc(C)cc(C)c1C#N | inconclusive: 102% |
| CCCSc1nc(C)c(C(C)=O)cc1C#N | inconclusive: 102% |
| CC(=O)Nc1ccc(NC(=O)c2ccccc2CC[N+](=O)[O-])cc1 | inconclusive: 107% |
| O=C(O)CCCCCn1c(SCc2cc(=O)n3cc(Cl)ccc3n2)nc2ccsc2c1=O | inconclusive: 119% |
| O=C(/C=C/c1cccc(Br)c1)N1CCN(c2cccc(C(F)(F)F)c2)CC1 | inconclusive: 92% |
| O=C(O)CCc1nnc(SCC(=O)Nc2ccc(Br)cc2)[nH]c1=O | inconclusive: 91% |
| CCOC(=O)c1nn(-c2ccccc2)c(=O)c(C#N)c1C | inconclusive: 103% |
| CCC(C)NC(=O)CSc1nc2n[nH]c(C)c2c(=N)n1-c1ccc(OC)cc1 (stereo unspecified) | inconclusive: 75% |

| SMILES | GTP binding activity |
| --- | --- |
| O=C(Nc1cccc(S(=O)(=O)N2CCCC2)c1)c1ccc2ccccc2n1 | inconclusive: 93% |
| COc1ccc(S(=O)(=O)NC(C(=O)NCCc2ccccn2)C(C)C)cc1 (stereo unspecified) | inactive: 105% |
| O=C1COc2ccc(C(=O)COC(=O)CNC(=O)C3CCCCC3)cc2N1 | inactive: 99% |
| O=C(O)CCn1ccnc1-c1ccccc1 | inconclusive: 103% |
| CC1CCC2(CC1)NC(=O)N(CC(=O)N1CCN(S(=O)(=O)c3ccccc3)CC1)C2=O (stereo unspecified) | inactive: 98% |
| O=C(OCc1cccc2ccccc12)c1ccc2c(=O)[nH]c(CN3CCOCC3)nc2c1 | inconclusive: 96% |
| COc1ccc(-c2oc3c(OC)c(OC)c(OC)c(O)c3c(=O)c2OC)cc1OC | inconclusive: 93% |
| S=C(Nc1cccc2ccccc12)NC1CCCCC1 | inactive: 96% |
| O=C(CSc1nnc(-c2cccnc2)o1)c1cc2ccccc2oc1=O | inconclusive: 102% |
| COc1ccc(/C=N/Nc2ncnc3sc(C)c(C)c23)cc1 | inactive: 96% |
| Cc1sc2ncnc(NC(C)C(=O)O)c2c1C (stereo unspecified) | inconclusive: 92% |
| COc1cccc(C(=O)COC(=O)c2n[nH]c(=O)c3ccccc23)c1 | inconclusive: 93% |
| CC(=O)N1CCC(=O)Nc2ccc([N+](=O)[O-])cc21 | inactive: 96% |
| Cc1cc(NC(=O)Nc2ccccc2F)ccc1Br | inactive: 98% |
| Cc1ccccc1Cn1c(CN2CCN(C(=O)c3ccco3)CC2)nc2c1c(=O)n(C)c(=O)n2C | inconclusive: 94% |
| CCCc1cc(C(N)=O)c(NC(=O)C2CCCO2)s1 (stereo unspecified) | inconclusive: 101% |
| CC(C)c1nc(SCC(=O)Nc2c[nH]c(=O)[nH]c2=O)c2cnn(-c3ccccc3)c2n1 | inactive: 97% |
| O=C(N/N=C/c1c(O)n(-c2ccccc2Cl)c(=O)c2ccccc12)c1cccnc1 | inactive: 93% |
| Cc1ccc(/C=C2\SC(=S)N(Cc3ccccc3)C2=O)o1 | inactive: 89% |
| O=C(O)CCCC(=O)NCCCCc1ccccc1 | inconclusive: 90% |
| CCc1cc2cc(C)ccc2nc1SCC(=O)Nc1cc(C)on1 | inconclusive: 102% |

| SMILES | GTP binding activity |
| --- | --- |
| CSc1nsc(SC)c1NC(=O)OC1CCCCC1 | active: 39% |
| Cc1ccc(S(=O)(=O)N(C)C)cc1NC(=O)Cn1c(CN2CCOCC2)nc2ccccc2c1=O | inactive: 94% |
| Cc1cc(C)cc(OCC(=O)Nc2ccc(S(=O)(=O)Nc3ccccn3)cc2)c1 | inconclusive: 94% |
| O=C1COc2ccc(C(=O)c3ccccc3C(=O)NCc3ccccc3)cc2N1 | inactive: 101% |
| CCOc1cccc(-c2nnc3sc(COc4ccc(C)cc4)nn23)c1 | inconclusive: 86% |
| COc1ccc(CSc2nnc(SCc3ccc([N+](=O)[O-])cc3)s2)cc1 | inconclusive: 103% |
| CCc1ccccc1NC(=O)Cn1nc(C(F)(F)F)cc1C1CC1 | inactive: 96% |
| COc1cc(CC(=O)NCc2ccco2)cc(OC)c1OC | inconclusive: 102% |
| CC1=C(Cl)C2=NS(=O)(=O)CCN2C=C1Cl | inactive: 98% |
| CSc1ccc(C(=S)N2CCN(C)CC2)cc1 | inconclusive: 104% |
| C=CCc1cc(C=O)cc(OC)c1OCc1ccc(C(=O)O)cc1 | inconclusive: 92% |
| Cc1ccc(OCCNC(=O)c2cccc(Oc3ccc(C(F)(F)F)cc3[N+](=O)[O-])c2)cc1 | inconclusive: 89% |
| CC(C)CC(=O)Nc1c2c(nn1-c1ccc(F)cc1)CSC2 | inactive: 101% |
| Cc1ccc(CN2CCN(Cc3ccc(-n4cccn4)cc3C)CC2CCO)cc1 (stereo unspecified) | inactive: 97% |
| Cc1cc2c(s1)c1cnn(CC(=O)NCCc3ccccc3)c(=O)c1n2C | inactive: 96% |
| COc1ccc(C(=O)Cc2ccc(OC)c(OC)c2)c(OC)c1 | inconclusive: 103% |
| CCn1cc(C(=O)O)c(=O)c2cc(F)c(N/N=C/c3ccccc3)cc21 | inactive: 84% |
| CCOc1cccc(CNCc2cccnc2)c1OCc1ccccc1 | inconclusive: 96% |
| CC(C)Nc1nc(Cl)nc(NNC(=O)C(C)Oc2ccccc2)n1 (stereo unspecified) | inactive: 102% |
